Measurements taken from PubChem BioAssay AID1345082 (National Center for Advancing Translational Sciences (NCATS), 2018).
Screen size: about 94,000 compounds; about 4,000 (4.3%) were called active. The inconclusive results got no clear call from the source; some entries with a clear call stand among them for comparison. Calls follow the shape of the dose curve; as a rule, active = well fitted inhibition curve with a large enough effect; inconclusive = small, poorly fitted or top-dose-only effect; inactive = no such curve, though single readings can be large or run the other way. Potencies of inconclusive entries are doubtful fits and often do not repeat.
Potency is read from the fitted curve at half-maximal effect; tags tell the direction and shape of the fitted curve.

Assay: Cytotoxic Profiling in NIH 3T3 Cell Line of Diverse Libraries Using Quantitative High-Throughput Screening; also: nearly all actives have a fitted effect of over 55% in size
Conditions: NIH 3T3 viability, CellTiter-Glo ATP luminescence, 48-72 h; series mostly up to 96.7 µM
How it was run: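 Mouse fibroblast NIH 3T3 cells, 400 per well, received compound via pintool and were incubated for 48 or 72 hr prior to CellTiter-Glo ATP luminescence measurement.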
In the case of `Cc1ccc([S+](=O)([O-])N2CCN(C(=O)c3cccc(-c4ccccn4)c3)CC2)cc1`, the Potency is reported as inconclusive: 39.8 µM [inhibitor, partial curve, poor fit]. In the case of `O=C(Nc1cccc2ccccc12)O[C@@H]1CO[C@H]2[C@@H]1OC[C@@H]2NCC1CCCCC1`, the Potency is reported as inconclusive: 28.2 µM [inhibitor, full curve, poor fit]. With `CCc1nc2c(c(-c3ccc(O)cc3)n1)CCN(C(=O)Cc1ccc(F)cc1)CC2` the Potency was “inactive”. With `CC(C)CCN1CCC(C2CCNC2)CC1` (stereo unspecified) the Potency was “inactive”. In the case of `Cc1ccc(C(=O)N2CCC(Cn3c(C)cnc3C3CCC3)CC2)cn1`, the Potency is reported as “inactive”. With `O=C1[C@H]2CN(Cc3ccncc3)C[C@H]2C(=O)N1Cc1ccc2c(c1)OCO2` the Potency was inconclusive: 28.2 µM [inhibitor, partial curve, poor fit]. For `CC(=O)c1cccc(NC(=O)Cn2c(-c3ccc(F)cc3)nc(C)c(CCO)c2=O)c1`, the Potency was inconclusive: 50.1 µM [inhibitor, partial curve, poor fit]. With `CC(=O)N1CCC(N2C[C@@H]3C[C@H]2C(=O)N(Cc2ccc(OC(F)(F)F)cc2)c2ccccc2O3)CC1` the Potency was inconclusive: 44.7 µM [inhibitor, partial curve, poor fit]. With `Cc1cccc(CNC(=O)c2noc(-c3ccc4c(c3)OCO4)n2)c1` the Potency was inconclusive: 50.1 µM [inhibitor, partial curve, poor fit]. For `Cc1c(O)cccc1C(=O)N1CCC2(CC1)Nc1ccccc1NC2=O`, the Potency was inconclusive: 89.1 µM [inhibitor, partial curve, poor fit]. In the case of `Cc1nc(N2CCN(C(=O)COc3ccccc3)CC2)cc(C(F)(F)F)n1`, the Potency is reported as “inactive”. With `O=C(Nc1ccc(Cl)cc1)N1CCC(Oc2ncccc2C(=O)N2CCCCC2)C1` (stereo unspecified) the Potency was inconclusive: 70.8 µM [inhibitor, single point]. In the case of `O=C(CCc1ccnc(N2CCCC2)c1)N1CCN(c2cccc(Cl)c2)CC1`, the Potency is reported as inconclusive: 35.5 µM [inhibitor, partial curve]. In the case of `Fc1ccc2c(c1)nc1n2[C@@H](CNC2CCCCC2)COC1`, the Potency is reported as active: 28.2 µM. In the case of `O=c1c2nc(OCc3ccccc3)ccc2ncn1Cc1ccccc1`, the Potency is reported as inconclusive: 89.1 µM [inhibitor, partial curve, poor fit]. For `COc1cccc(NC(=O)CC2CCCCN(C)C2=O)c1` (stereo unspecified), the Potency was “inactive”. For `O=C(CN1C(=O)C(c2ccccc2)=NC12CCCC2)Nc1ccc2c(c1)OCCO2`, the Potency was “inactive”. With `c1cc(-c2ccco2)cc(-c2nc(C3CCOC3)no2)c1` (stereo unspecified) the Potency was inconclusive: 89.1 µM [inhibitor, single point]. For `O=C(NC1CCc2nnc(C3CC3)n2CC1)C1CC=CCC1` (stereo unspecified), the Potency was “inactive”. In the case of `Cc1ccccc1C(=O)NC1CCN(c2ccc3nnc(-c4ccccc4)n3n2)C1` (stereo unspecified), the Potency is reported as inconclusive: 50.1 µM [inhibitor, partial curve, poor fit]. For `O=C(Nc1ccc(F)cc1)N1Cc2[nH]cnc2C[C@H]1c1nc(-c2ccc(F)cc2)no1`, the Potency was inconclusive: 70.8 µM [inhibitor, partial curve]. For `CN1c2cccnc2CN(C2CCCCC2)CC[C@H]1CO`, the Potency was “inactive”. With `CNC(=O)Nc1ccc(C2(C(=O)N3CCN(c4cccc(Cl)c4)CC3)CCC2)cc1` the Potency was inconclusive: 50.1 µM [inhibitor, partial curve, poor fit]. For `C[C@H]1[C@@H]2[C@@H](O)C([C@H](C)C(=O)NCc3cccnc3)CC[C@@]2(C)CC[C@@H]1NC(=O)c1ccccn1` (stereo partly specified), the Potency was “inactive”. In the case of `O=C(Nc1ccccc1)c1ccc2c(c1)OCCN(CCC(F)(F)F)C2`, the Potency is reported as inconclusive: 12.6 µM [inhibitor, full curve]. For `O=C(Cc1ccccn1)N1CCC2(C1)C(=O)N(CCc1ccccc1)c1ccccc12` (stereo unspecified), the Potency was inconclusive: 50.1 µM [inhibitor, partial curve, poor fit]. In the case of `Cc1noc(C)c1CN1CC[C@@H]2OCC(=O)N(Cc3c[nH]c4ccccc34)[C@H]2CC1`, the Potency is reported as “inactive”. For `NC(=O)[C@@H](Cc1c[nH]c2ccccc12)NC(=O)[C@@]1(O)C[C@@H](O)[C@H](O)[C@@H](NC(=O)NC2CCCCC2)C1`, the Potency was “inactive”. In the case of `Cc1nc(NCc2nc(C)c3c(n2)CCCC3)cc(C2CC(O)C2)n1` (stereo unspecified), the Potency is reported as inconclusive: 79.4 µM [inhibitor, partial curve, poor fit]. For `CCCNC(=O)N(C1CCOCC1)C1CCN(C(=O)c2ccc(Cl)s2)CC1`, the Potency was inconclusive: 70.8 µM [inhibitor, single point]. In the case of `Cc1ccc(C(=O)N2CCc3nc(C(C)C)nc(-c4ccc(Cl)cc4)c3C2)cc1`, the Potency is reported as inconclusive: 50.1 µM [inhibitor, partial curve, poor fit]. In the case of `O=C(c1ccco1)N1CC(Oc2cccc(-c3nc(-c4ccccc4)no3)c2)C1`, the Potency is reported as inconclusive: 50.1 µM [inhibitor, partial curve, poor fit]. For `Cc1ccc(CN(C(=O)c2ccco2)c2ccc(CC(=O)NCC(C)C)cc2)cc1`, the Potency was inconclusive: 50.1 µM [inhibitor, partial curve, poor fit]. With `COc1ccc(OCc2nc3c(n2Cc2ccccc2)C(=O)N(Cc2ccccc2)CCN3)cc1OC` the Potency was inconclusive: 50.1 µM [inhibitor, partial curve, poor fit]. In the case of `CCCCOc1ccc(-c2nc(C3CC(=O)N(C4CCCCC4)C3)no2)cc1` (stereo unspecified), the Potency is reported as active: 31.6 µM. With `Cc1ccccc1N(C)C1CN(C(=O)c2ccc(C(F)(F)F)cc2)C1` the Potency was inconclusive: 56.2 µM [inhibitor, partial curve, poor fit]. For `CCc1ccc(CNC(=O)C2CCN(c3cc(C(F)(F)F)nc(C)n3)CC2)cc1`, the Potency was inconclusive: 70.8 µM [inhibitor, single point]. For `COc1cccc(-c2cc3c(=O)n(CCNC(=O)c4ccc(C#N)cc4)ccn3n2)c1`, the Potency was inconclusive: 25.1 µM [inhibitor, full curve]. In the case of `CCCN1CCC2(CCN([S+](=O)([O-])c3cccs3)CC2)Oc2ccccc21`, the Potency is reported as inconclusive: 31.6 µM [inhibitor, full curve]. For `COc1ccc(CNC(=O)C[C@@H]2C[C@@H](C(C)C)[C@H](CNC(=O)c3cccnc3)C=C2C)cc1`, the Potency was inconclusive: 50.1 µM [inhibitor, partial curve, poor fit]. For `O=C(CN1CCN(c2nccc(-c3cccnc3)n2)CC1)N1CCOCC1`, the Potency was inconclusive: 50.1 µM [inhibitor, partial curve, poor fit]. With `Cc1cnc(CC2CCCN(C(=O)C3(c4ccccc4)CC3)C2)n1Cc1ccc(F)cc1` (stereo unspecified) the Potency was inconclusive: 44.7 µM [inhibitor, partial curve, poor fit]. For `CCc1ccc(S(=O)(=O)N2CCC(n3cnnc3COC)CC2)cc1`, the Potency was “inactive”. For `Cc1n[nH]nc1C(=O)N1C[C@H](CO)C[C@H](CN(C)C)C1`, the Potency was “inactive”. For `CN1c2cc(C(=O)Nc3cc(F)cc(F)c3)ccc2C(=O)N2CCCCC21` (stereo unspecified), the Potency was inconclusive: 56.2 µM [inhibitor, partial curve, poor fit]. For `COCc1cccc(-c2ccc3ncn(-c4ccc(F)cc4F)c(=O)c3n2)c1`, the Potency was inconclusive: 50.1 µM [inhibitor, partial curve, poor fit]. With `COc1ccc(Nc2ccnc(N3CCCC(C(=O)N4CCCCC4)C3)n2)cc1` (stereo unspecified) the Potency was inconclusive: 44.7 µM [inhibitor, partial curve, poor fit]. For `CC(=O)Oc1c(-c2ccc(NC(=O)C(C)C)cc2)c(-c2ccc(F)cc2)nn1-c1ccc(F)cc1`, the Potency was inconclusive: 50.1 µM [inhibitor, partial curve, poor fit]. In the case of `COc1cccc(N2C(=O)NC(=NC3CCCC3)C23CCCN(CC2CCCCC2)C3)c1` (stereo unspecified), the Potency is reported as inconclusive: 25.1 µM [inhibitor, full curve, poor fit]. In the case of `CC(C)Cn1c(=O)c(C(=O)NCCc2ccccc2)nc2cccnc21`, the Potency is reported as inconclusive: 70.8 µM [inhibitor, single point]. With `O=C(NCC1CN(C(=O)c2cccc(Cl)c2)CC12CN(c1ccccc1)C2)C1CC1` (stereo unspecified) the Potency was inconclusive: 100 µM [inhibitor, single point]. For `COc1cc(NC(=O)c2ccc3c(c2)N(C)C2CCCCCN2C3=O)cc(OC)c1` (stereo unspecified), the Potency was inconclusive: 50.1 µM [inhibitor, partial curve, poor fit]. In the case of `O=C(Nc1ccc(F)cc1)C1CCN(C(=O)c2ncn3c2COC(c2ccccc2)C3)CC1` (stereo unspecified), the Potency is reported as “inactive”. For `CCc1ccccc1NC(=O)Cn1c(N2CCc3ccccc3C2)nc(C)cc1=O`, the Potency was active: 17.8 µM. With `OCC1(CCOc2ccccc2)CCCN(c2ncnc3sccc23)C1` (stereo unspecified) the Potency was inconclusive: 70.8 µM [inhibitor, partial curve, poor fit]. For `Cc1cccc(-c2cccc(CN3CCC(NC(=O)C(C)(C)C)CC3)c2)c1`, the Potency was inconclusive: 50.1 µM [inhibitor, partial curve, poor fit]. In the case of `CCCCc1cc(C[C@H]2CNCC[C@H]2CC(=O)NCc2ccccc2)no1`, the Potency is reported as inconclusive: 126 µM [inhibitor, single point]. For `Cc1nn(-c2ccc(C(F)(F)F)cc2)c(C)c1[C@@H]1C=C[C@@H](NC(=O)NC2CCCCC2)C1`, the Potency was inconclusive: 8.91 µM [inhibitor, full curve, poor fit]. With `Cc1nn2c(c1-c1cccnc1N1CCOCC1)N(Cc1ccccc1)CCC2` the Potency was inconclusive: 56.2 µM [inhibitor, partial curve, poor fit]. With `CC1(c2ccccc2)N(Cc2ccccc2)C(=O)OC12CCN(Cc1c[nH]c3ccccc13)CC2` (stereo unspecified) the Potency was active: 22.4 µM. For `O=C(C1CCCCC1)N1CCC(N2C(=O)C(O)C23CCCCC3)CC1` (stereo unspecified), the Potency was “inactive”.
